The whole screen tested about 280,000 compounds, of which about 540 (0.19%) were called active. Inconclusive results (about 2%) are left out. Calls follow the shape of the dose curve; as a rule, active = well fitted activation curve with a large enough effect; inconclusive = small, poorly fitted or top-dose-only effect; inactive = flat fitted curve, though single readings scatter. This is a selection; strong and weak results do not stand in their true shares.
assay: Quantitative High-Throughput Screen for Regulators of Epigenetic Control; settings: murine LDR cells, GFP reporter derepression, 30 h; series mostly up to 53.9 µM; GFP activation: at the top concentration; also: % of control where 0% means no effect; nearly all actives have a fitted effect of over 60% in size
From the text: NIH Molecular Libraries Screening Centers Network [MLPCN] NIH Chemical Genomics Center [NCGC] MLSCN Grant: 1 X01 MH079860-01 Assay Provider: Elisabeth D. Martinez, University of Texas SW Medical Center NCGC Assay Overview: The Locus Derepression (LDR) assay detects the derepression or induction of a GFP reporter that is stably integrated in a genomic region of murine cells that is presumably silenced. Transcription of the GFP reporter is controlled by a CMV promoter, which normally is constitutively active. However, this cell line, termed LDR, was selected for lack of constitutive production of GFP. GFP production can be induced by incubating the cells with histone deacetylase or DNA methyltransferase inhibitors (Martinez et al., 2006). Compounds that derepress or induce this reporter locus are identified by enumerating GFP positive cells using a laser-scanning microplate cytometer (Auld et al., 2006). This assay was screened against the MLSMR earlier (AID 597; (Johnson et al., 2008) and has been rescreened here against the expanded collection.
NCGC Assay Protocol Summary: Three hundred LDR cells in 5 uL per well were dispensed into black, clear-bottom 1536-well plates. Twenty-three nL compound was transferred to the assay plate and cells were incubated 30 hours at 37 C. Medium was removed, cells were washed two times with PBS, and GFP-positive cells were enumerated as fluorescent objects between the sizes of 20 to 120 um width and depth using an Acumen Explorer. References Auld, DS, Johnson, RL, Zhang, YQ, Veith, H, Jadhav, A, Yasgar, A, Simeonov, A, Zheng, W, Martinez, ED, Westwick, JK, Austin, CP, Inglese, J (2006). Fluorescent protein-based cellular assays analyzed by laser-scanning microplate cytometry in 1536-well plate format. Methods Enzymol 414: 566-89. Johnson, RL, Huang, W, Jadhav, A, Austin, CP, Inglese, J, Martinez, ED (2008). A quantitative high-throughput screen identifies potential epigenetic modulators of gene expression. Anal Biochem 375: 237-48. Martinez, ED, Dull, AB, Beutler, JA, Hager, GL (2006). High-content fluorescence-based screening for epigenetic modulators. Methods Enzymol 414: 21-36.

| Compound | GFP activation | Potency |
| --- | --- | --- |
| NCCCP(=O)(O)CC1CCCCC1 | inactive: 1.05% | – |
| COc1ccc2c3c([nH]c2c1)C(C)=NCC3 | – | inactive |
| CCC1(c2ccc(N)cc2)CCC(=O)NC1=O (stereo not drawn) | inactive: -1.33% | – |
| CC[C@@]1(c2ccc(N)cc2)CCC(=O)NC1=O | inactive: 0% [at 16.9 µM] | – |
| c1ccc2c(c1)[I+]c1ccccc1-2 | – | inactive |
| COc1cccc(N2C(=O)NC(=O)/C(=C/c3ccc([N+](=O)[O-])s3)C2=O)c1 | inactive: 0.224% | – |
| C[C@]12CC[C@H](O)CC1=CCC1C2CC[C@]2(C)C(=O)CC[C@@H]12 (stereo partly drawn) | – | inactive |
| O=c1oc(Cl)c(Cl)c2ccccc12 | inactive: 2.94% | – |
| Cc1nn(C)c(C)c1P(=S)(c1c(C)nn(C)c1C)N(C)C | inactive: -4.1% | – |
| COc1ccc(N2C(=O)NC(=O)/C(=C/c3ccc([N+](=O)[O-])s3)C2=O)cc1 | inactive: -1.9% | – |
| CC(C)(c1ccc(OCC2CO2)cc1)c1ccc(OCC2CO2)cc1 (stereo not drawn) | – | inactive |
| CC(C)[C@@]1(NC(=O)[C@H]2CC3c4cccc5[nH]cc(c45)C[C@H]3N(C)C2)O[C@@]2(O)C3CCCN3C(=O)[C@@H](Cc3ccccc3)N2C1=O (stereo partly drawn) | – | inactive |
| COC(=O)C1=C(C)NC(C)=C(C(=O)OC)C1c1ccccc1[N+](=O)[O-] | – | inactive |
| COc1cc(C(C#N)N2CCOCC2)ccc1O (stereo not drawn) | inactive: 2.32% | – |
| COc1ccc2c(c1)[nH]c1c(C)nccc12 | – | inactive |
| COc1ccc(C[C@H]2NC[C@H](O)[C@H]2OC(C)=O)cc1 | inactive: 1.89% | – |
| CC(C)c1cc2c(c(O)c1O)[C@]1(C(=O)O)CCCC(C)(C)C1CC2 (stereo partly drawn) | inactive: -1.33% | – |
| CC[C@H]1CN2CCc3cc(OC)c(OC)cc3[C@@H]2C[C@@H]1C[C@H]1NCCc2cc(OC)c(OC)cc21 | inactive: -0.962% | – |
| C=CCN1C(=O)/C(=C/c2ccc(N3CCOCC3)o2)C(=O)NC1=S | inactive: 0.917% | – |
| CC[C@@H]1CN2CCc3cc(OC)c(OC)cc3[C@@H]2C[C@@H]1C[C@H]1NCCc2cc(OC)c(OC)cc21 | inactive: 2.99% | – |
| CC1=C2CC3C(CC=C4C[C@@H](O)CC[C@@]43C)[C@@H]2CC[C@]12O[C@@H]1C[C@H](C)CN[C@H]1[C@H]2C (stereo partly drawn) | inactive: 0% | – |
| COc1ccc(C[C@H]2NC[C@H](O)[C@@H]2OC(C)=O)cc1 | inactive: 3.75% | – |
| O=C1CCC[C@H]2[C@@H]3CCCN4CCC[C@H](CN12)[C@H]34 | inactive: 1.54% | – |
| CC1=CC(=O)C2=C(C)C[C@H](O)[C@H]3[C@H](C)C(=O)O[C@@H]3C12 (stereo partly drawn) | inactive: -0.929% | – |
| O=C1NC(=O)N(c2ccccc2)C(=O)/C1=C\c1ccc([N+](=O)[O-])s1 | inactive: -4.17% | – |
| Oc1cc2c(cc1O)[C@H]1c3ccccc3CN[C@@H]1CC2 | inactive: 9.62% | – |
| COc1ccc(OC)c(N2C(=O)NC(=O)/C(=C/c3ccc([N+](=O)[O-])s3)C2=O)c1 | inactive: -0.129% | – |
| O=C1NC(=O)N(CCc2ccc(F)cc2)C(=O)/C1=C\C=C\c1ccccc1 | inactive: 10.2% | – |

From PubChem BioAssay AID1865 (National Center for Advancing Translational Sciences (NCATS), 2009)
